The list shows a part of the results.

T1: UNK ZnF1-3 (human, UniProt Q9C0B0 31-174)
T1 sequence: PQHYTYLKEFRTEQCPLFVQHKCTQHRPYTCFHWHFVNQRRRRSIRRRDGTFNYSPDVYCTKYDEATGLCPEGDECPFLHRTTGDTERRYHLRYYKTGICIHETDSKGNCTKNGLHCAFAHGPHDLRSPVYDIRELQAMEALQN

B1: chr4:83122263:83122264:-_ENSMUSG00000028484_ENSMUST00000107214|mus_hu|motif|central (ssRNA)
RNA: GGGAGUUCUACAGUCCGACGAUCAUUUGAUUGUUUAGUUGCUGCCUGUUGACUUGAAAAUUUCACUUUUGGAUUGUUAUCGGUCUCCCAUAAACCUUCAUUAAAACCUUUUCUUUUAUUUGGUUUGCCAUACUUUUCCUUAUUCAACAGAGGAUUGAGCAUCA
B2: chr1:163117127:163117128:-_ENSG00000143248_ENST00000313961|hu_mus|hu_hu_hu_mus_False|1_108 (ssRNA)
RNA: GGGAGUUCUACAGUCCGACGAUCUGCGGGUUAUUAUGUAACUCAACUCACAGGGCAACUUUUGGAAGCCUGACCAGAUGACUACUUGAUUAGCUCCUUAUAAAAUUCAGAGCGCACAAAGCGGGGCAGAGAAUCCUUUUCCAUCAACAGAGGAUUGAGCAUCA
B3: 32875545_32884045_1281_3pUTR_ENSG00000087470_ENST00000452533|human|control|control (ssRNA)
RNA: GGGAGUUCUACAGUCCGACGAUCAAAUGUCAAUAGUGUUAAGGCCACCAAGUGGAUCAACAGAUUCUAAGGUUCGCCCAAAAGUCUCAUGGAAAAUAUAACAAAUUCUAGCACCACCGCAUAGCUCCGAAGUUUCAAUAUAUUCAACAGAGGAUUGAGCAUCA
B4: 83243669_83244672_1640_3pUTR_ENSMUSG00000031715_ENSMUST00000043359|mouse|control|control (ssRNA)
RNA: GGGAGUUCUACAGUCCGACGAUCUAUGUCUAUAUCUUUCAUUAAUAUCCGAGUAUACCAUUCUCUUUGCAUUUUGCUAAGACCCACAUAGAUUUUUACUUCUUUUUUUGGAGGCAAACUCUUUUCAACAUCAGCUUUAAUUCGCAACAGAGGAUUGAGCAUCA
B5: 56177021_56177438_2351_3pUTR_ENSG00000095015_ENST00000399503|human|control|control (ssRNA)
RNA: GGGAGUUCUACAGUCCGACGAUCGACUGCAAAGCAAAGGUUAAGAGGGACAGCAGCUUCUUAUACCUGAUUUCAACAGGCUCAGCUUGUGAAACAUCAGUACUGACAAUAUGAGGAUAAAAUUCAGCAGGAAAUUCCAACAACCAACAGAGGAUUGAGCAUCA
B6: chr13:100194276:100194277:-_ENSMUSG00000052727_ENSMUST00000064762|mus_hu|FALSE|FALSE (ssRNA)
RNA: GGGAGUUCUACAGUCCGACGAUCAAUCUUGCCAGAACUUCAAAAAACAUUAUUCAAUUUUUGUCUUACGAAACACUUAAAAAAAAAGACUAUCACUUGAGAAUUUUCUUUGCAAUUUCCUGUAAAUGAAAACAUUUGUUAAAACAACAGAGGAUUGAGCAUCA
B7: 2585564_2585684_2212_3pUTR_ENSG00000007168_ENST00000397195|human|control|control (ssRNA)
RNA: GGGAGUUCUACAGUCCGACGAUCAAUAUAUCCUACUGAUUUGGCAAAUGUGUCAUGACAAAAAUUCCAAUGUAUAAUCCCCAUUCAUUACAUAGAUGGUUCAGAAGAUUCUGAAUUGUAGCCUUAUCAUCUAAAAUCCUUACACAACAGAGGAUUGAGCAUCA
B8: 50285228_50296650_2469_3pUTR_ENSMUSG00000043531_ENSMUST00000164039|mouse|control|control (ssRNA)
RNA: GGGAGUUCUACAGUCCGACGAUCCUUCCCUGGACACUUCUGUGGUUUGGCGGUAUACUGCUCUCUCACUCCAUCAGUACAAUUAUUGGAGACCACCUUCCUAUACCCAGUGCUGUUGAGGUAACUCUGUCCCAAGCUGCAGUCCAACAGAGGAUUGAGCAUCA
B9: chr5:130536139:130536140:+_ENSMUSG00000025532_ENSMUST00000026608|mus_mus|motif|central (ssRNA)
RNA: GGGAGUUCUACAGUCCGACGAUCUCAGAUUGGAGUUUUCUCUUAUCUCCUAUUCCGCCAAGGACAUUCCUCUACAGUGAGCGGAGCUCUGGGUCAUUUCCCCUAGAGCAGCUGUGUGCAGCUCUGAGAGCUGGUGACCAUCUGCAACAGAGGAUUGAGCAUCA
B10: chr1:163117127:163117128:-_ENSG00000143248_ENST00000313961|hu_mus|hu_hu_hu_mus_False|38_88 (ssRNA)
RNA: GGGAGUUCUACAGUCCGACGAUCUGCUACAAAGGAUGUAACUCAACACUCACAGGAACUUUUGGAAGCCUGACCAGAUGACUACUUGAUUAGCUCCUGAUAAAACUCAGAGCGCACAAAGCGGGGCAGAGAAUCCUUCUCCAUCAACAGAGGAUUGAGCAUCA
B11: chr1:229631753:229631754:-_ENSG00000069248_ENST00000261396|hu_mus|FALSE|FALSE (ssRNA)
RNA: GGGAGUUCUACAGUCCGACGAUCCUGCUUCUCUGAAGAAUCGUCCAGUUCCCAUUUGCUGAUGUUUGAACUCGUCAGGGUGUAGAAACUUGAUCCUCCUCUGUCCCACAGAACACUGGCCAGCAUGAGGUCACUAGUAGGGGACAACAGAGGAUUGAGCAUCA
B12: chr1:204511919:204511920:+_ENSG00000198625_ENST00000367182|hu_hu|motif|central (ssRNA)
RNA: GGGAGUUCUACAGUCCGACGAUCGCCAGCUACAUCCCACUCCUCAAAUCCAAGGUCCAGCCUAGAUGUUUCAUCUUGGGCGGAAUUUUCAAUUAAGUCUUCAUCUUCUCUAGAAUGUAUGCAUUUAUGCUCUGAGGUAGGCAGCAACAGAGGAUUGAGCAUCA
B13: chr2:30258285:30258286:-_ENSMUSG00000026853_ENSMUST00000028207|mus_mus|FALSE|FALSE (ssRNA)
RNA: GGGAGUUCUACAGUCCGACGAUCGGCCUCCAUGGGGUUGUAGCAGAUGCCAUAACCAUCUGGGACCACAGGUCCGAAGAACAUGACACAGUCUGUCUUGGCAGGGACCUGGCUGGUAGAGAGGUUGAAGUGCAUAGCAAUGGCCAACAGAGGAUUGAGCAUCA
B14: chr7:141441981:141441982:+_ENSG00000106028_ENST00000265304|hu_mus|hu_hu_hu_mus_False|28_88 (ssRNA)
RNA: GGGAGUUCUACAGUCCGACGAUCCUCAUGUCUUACAAACUGACGAAGUACCUGUAACACAGGUCUUCGAAACAUGGCUUCUGUUUUUCUUACAACCUAAUCUUUAGUUAGGCUUUUAAGGAAAGAAAGAAAAGAGAAAAAUGACAACAGAGGAUUGAGCAUCA
B15: chr4:58499471:58499472:-_ENSMUSG00000038668_ENSMUST00000055018|mus_hu|FALSE|FALSE (ssRNA)
RNA: GGGAGUUCUACAGUCCGACGAUCAGCAUAGAGAACCACCAUUACCACAAAGGUCACCAAGUUGAAAAUGGCCCAGAAGACUAAGUAAGAGUCACUGUAGAGGGGUGCCAUGUUGGAACAAUUUUCAAUAUCACAGAUACAGUUCAACAGAGGAUUGAGCAUCA
B16: chr2:202488911:202488912:-_ENSG00000155755_ENST00000286196|hu_mus|hu_hu_hu_mus_False|48_78 (ssRNA)
RNA: GGGAGUUCUACAGUCCGACGAUCAUUGAAACAUUUUUCAUAAUCUCCAGUAGCAUUCAGUAUUAUAGUAACAAAAGCUCAAUUGUAAAUACACAUGUCUUAUAAAAAUACACUUAAAAACACGAGUGGGGAGCGCAGGCGCCACAACAGAGGAUUGAGCAUCA
B17: chr4:155069534:155069535:+_ENSMUSG00000074738_ENSMUST00000099265|mus_hu|motif|central (ssRNA)
RNA: GGGAGUUCUACAGUCCGACGAUCGUGAGCCGGAGUGCCCAUGGCUCUUGCUGGAAGGGGCUCCAUGCCCUGGCCGCCUCGGUAAAGGCCUGCGGAGAGCGGGGAGAGCCCUGGAUGCGGCUGGCACAGCAGCGCAAGCCCAGGCAACAGAGGAUUGAGCAUCA
B18: chr4:144460044:144460045:+_ENSG00000153147_ENST00000283131|hu_mus|hu_hu_hu_mus_False|28_88 (ssRNA)
RNA: GGGAGUUCUACAGUCCGACGAUCACGGUCCAUAGCCUGAAGAUCAACUUGGGGAUUCCAAUCUGAGUCAUAUAAAAUGACUACAUCAGCAGUUGCAAGAUUGAUGCCAAGACCACCAGCACGUGUGCUUAGCAUAAAUACAAACAACAGAGGAUUGAGCAUCA
B19: chr11:82972979:82972980:-_ENSG00000137500_ENST00000527495|hu_hu|FALSE|FALSE (ssRNA)
RNA: GGGAGUUCUACAGUCCGACGAUCAGCCACAGCAGGAUGAGCAUUAAUACUACUUCCAGAAUCUAUAAAAUCCCAAUGCUAUUGCCAGGCAAGUAAACACCGAAGCUUUUUUGUAAAUUCUGUAGUUGUUUCCAUAAGUUGCUUCAACAGAGGAUUGAGCAUCA
B20: chr22:19442333:19442334:-_ENSG00000070010_ENST00000399523|hu_hu|FALSE|FALSE (ssRNA)
RNA: GGGAGUUCUACAGUCCGACGAUCGACUGUCCUUCUCCAGAGAAAGCGACGAAUCUGCCUCCAGCUUCAUCCAAGUUUAAAUUCAUAAUUGGGAAUUCCUCUUUUAAUAUCUCCAGGCUUGAUUGGGGAGGGGCUGGGCUCUACCAACAGAGGAUUGAGCAUCA
B21: chr3:122252165:122252166:-_ENSMUSG00000039735_ENSMUST00000162409|mus_hu|motif|central (ssRNA)
RNA: GGGAGUUCUACAGUCCGACGAUCAAUGCGCUGCUGUAGUUUUUUACGUCUCUGUUCUGGUGGCAGAUGACUGAAAUCUUCGGGUGCUGGGCCCUUUGGCUUCUUUCCAAAGAGCCACAAUUUGCCCUUGGCCUUUCCUACUGUCAACAGAGGAUUGAGCAUCA
B22: chr9:14812383:14812384:-_ENSMUSG00000031934_ENSMUST00000164273|mus_mus|mus_mus_mus_hu_True|88_108 (ssRNA)
RNA: GGGAGUUCUACAGUCCGACGAUCAUAGCUCAAGUAGAUACACGCUAACAGUAUAACGAUGAGUGUCAGCAGGCGGCAGCUAAUGUACUUGAUGAUUAAAUUAUUAGAAUUUUUCUUUGUCUUCAAGUACUGCUCCACAAUUGGCAACAGAGGAUUGAGCAUCA

The target of the assay is T1, UNK ZnF1-3. In words: nsRBNS (natural sequence RNA bind-n-seq); RBNS binding buffer (assumed for nsRBNS): 25 mM Tris pH 7.5, 150 mM KCl, 3 mM MgCl2, 0.01% Triton X-100, 500 ug/ml BSA, 20 U/ml SUPERase-In, 4 C; UNK is unkempt and MSI1 is Musashi-1; names of the RNAs are library labels; protein concentration not given here; high values mean tight binding.
Consider B1, for which the binding signal stood at 0.509 enrichment R. Then B2, with 0.896 enrichment R; and B3, with 1.92 enrichment R; and B4, with 0.553 enrichment R.

The molecule B5 returned a binding signal of 1.81 enrichment R. Then B6, with 1.11 enrichment R. In turn, B7 came in with a binding signal of 0.704 enrichment R.

The molecule B8 registered a binding signal of 0.872 enrichment R.

Take B9: the binding signal is 0.346 enrichment R. Take B10: the binding signal came to 1.1 enrichment R. Take B11: the binding signal came out at 0.897 enrichment R. Then B12, with 0.989 enrichment R. B13 yielded a binding signal of 1.56 enrichment R. With B14, the binding signal is 0.627 enrichment R. As for B15, the binding signal amounted to 2.32 enrichment R. Take B16: the binding signal is 1.35 enrichment R. B17: the binding signal turned out to be 0.722 enrichment R. The molecule B18 yielded a binding signal of 1.07 enrichment R. Under B19 stands 2.04 enrichment R; under B20, 2 enrichment R; under B21, 0.412 enrichment R. Turning to B22, the binding signal turned out to be 0.969 enrichment R.
